Laboratory results as given in the supplement of paper PMC4723716.
± gives the uncertainty stated by the source. Over roughly 9,900 compounds, “viability index relative to DMSO control” has its median near 1; the lowest 2% begin near 0.85. The list shows a part of the results.

Test system: Plasmodium falciparum NF54 stage V gametocytes
Test: viability index relative to DMSO control (fraction); higher = less gametocyte killing
Conditions: 2.5 µM, library set: Broad Institute DOS, incubation time: 72 h
How it was run: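 Gametocytes (P. falciparum NF54, stage V) were treated with compound at 2.5 µM for 72 hr at 37°C in low oxygen, in serum-free medium at 0.75% gametocytemia and 1.25% hematocrit. Counts of 20–70 µm2 red particles, taken from one field per well after MitoTracker Red CMXRos with saponin, were divided by the plate mean of solvent-only wells. This ratio is the viability index.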

Compound COCC(=O)Nc1ccc2c(c1)C(=O)N(C)C[C@H](OC)[C@H](C)CN(C(=O)c1ccncc1)[C@H](C)CO2 has a viability index of 1.08 ± 0.062.

In the case of CC(=O)N1[C@H](CO)[C@@H](c2ccccc2)[C@@H]1CN(CC1CCC1)C(=O)CN(C)C, the viability index is reported as 1.03 ± 0.034.

For CNC[C@H]1OCCCC[C@@H](C)Oc2ccc(NC(=O)Nc3ccc(OC)cc3)cc2C(=O)N([C@H](C)CO)C[C@@H]1C, the viability index was 1.06 ± 0.022.

Work on COc1ccc2c3c([nH]c2c1)[C@H](CO)N(C[C@]31CCN(C)CC1)S(=O)(=O)c1ccccc1 yielded a viability index of 1.06 ± 0.078.

CO[C@@H]1CC[C@@H]2CCN(C)C(=O)[C@@H](C)CN(C)C(=O)c3cc(C#N)ccc3OC[C@@H]1O2 was tested, and the viability index was 0.92 ± 0.11.

CCCNC(=O)c1cc2c(c(-c3cccc(-c4ccc(F)cc4)c3)n1)[C@H](CCO)N([S@@](=O)C(C)(C)C)C2 gave a viability index of 1.001 ± 0.0012.

CN1CCN(C(=O)C[C@@H]2CC[C@@H]3[C@@H](COc4ccc(NC(=O)C5CCOCC5)cc4C(=O)N3C)O2)CC1 showed a viability index of 1.12 ± 0.043.

With Cc1cccc(S(=O)(=O)N2CC[C@@H]3[C@H](CO)Nc4ccc(-c5ccccc5F)cc4[C@@H]32)c1 the viability index was 1.06 ± 0.03.

Work on CCCNC(=O)N1C[C@@]2(C1)CN([C@@H](CO)c1[nH]c3cc(OC)ccc3c21)C(=O)Nc1ccc(F)cc1 yielded a viability index of 0.986 ± 0.011.

With C[C@H]1CCCCO[C@H](CN(C)Cc2ccc(C(F)(F)F)cc2)[C@@H](C)CN([C@@H](C)CO)C(=O)c2cc(NC(=O)Nc3cccc4ccccc34)ccc2O1 the viability index was 1.01 ± 0.059.

Compound COc1ccc2c3c([nH]c2c1)[C@H](CO)N(C[C@]31CN(CC2CC2)C1)C(=O)CN(C)C has a viability index of 1.07 ± 0.032.

For O=C1CNC[C@H]2[C@H](c3ccc(-c4ccccc4F)cc3)[C@H](CO)N12, the viability index was 1.03 ± 0.11.

Work on CCS(=O)(=O)NCC[C@H]1CC[C@H](NS(=O)(=O)c2ccccc2C)[C@H](CO)O1 yielded a viability index of 0.89 ± 0.031.

C/C=C/c1ccccc1[C@H]1[C@@H](CO)N(C(=O)Nc2ccc(OC)cc2)[C@H]1C#N gave a viability index of 1.04 ± 0.039.

CCCNC(=O)N(C)C[C@@H]1Oc2cc(C#C[C@H](C)O)ccc2S(=O)(=O)N([C@@H](C)CO)C[C@H]1C showed a viability index of 1.05 ± 0.043.

COCC(=O)N1CC(=O)N2[C@H](C1)[C@H](c1ccc(-c3ccccc3F)cc1)[C@@H]2CO gave a viability index of 1.02 ± 0.013.

For O=C(C[C@H]1CC[C@@H]2[C@H](COC[C@@H](O)CN2CCC(F)(F)F)O1)NCC1CC1, the viability index was 1.02 ± 0.1.

C[C@H]1CN([C@@H](C)CO)C(=O)c2cc(NC(=O)CCCN(C)C)ccc2O[C@@H]1CN(C)Cc1ccc(Cl)c(Cl)c1 was tested, and the viability index was 1.01 ± 0.12.

CN(C)C(=O)C[C@H]1C[C@@H]2c3cc(NC(=O)c4cccnc4)ccc3O[C@@H]2[C@@H](CO)O1 was tested, and the viability index was 1.07 ± 0.039.

Cc1cc(C(=O)Nc2ccc3c(c2)C(=O)N(C)[C@@H]2CC[C@H](CC(=O)NCc4ccc(-c5ccccc5)cc4)O[C@@H]2CO3)no1 was tested, and the viability index was 1.09 ± 0.15.

Work on C/C=C/c1ccc([C@@H]2[C@H](CO)N3C(=O)CN(S(=O)(=O)c4ccccc4)C[C@@H]23)cc1 yielded a viability index of 0.977 ± 0.02.

COCC#Cc1ccc([C@@H]2[C@H](CO)N3C(=O)CN(C(=O)c4ccncc4)C[C@@H]23)cc1 gave a viability index of 1.11 ± 0.041.

In the case of C[C@@H]1CCCCO[C@H](CN(C)S(C)(=O)=O)[C@H](C)CN([C@@H](C)CO)C(=O)c2cc(NC(=O)NC3CCCCC3)ccc2O1, the viability index is reported as 1.14 ± 0.17.

CN(C)C(=O)c1ccc(-c2ccc([C@@H]3[C@H]4CNC[C@@H]3N4CC3CCCCC3)cc2)cc1 gave a viability index of 1.067 ± 0.0056.

For CN1CCN(C(=O)C[C@@H]2CC[C@H]3[C@@H](COC[C@H](O)CN3C(=O)Nc3ccc4c(c3)OCO4)O2)CC1, the viability index was 1 ± 0.082.

Compound O=C(Nc1cc(F)ccc1F)N[C@H]1CC[C@H](CC(=O)N2CCc3ccccc3C2)O[C@@H]1CO has a viability index of 1.07 ± 0.075.

COc1ccc2c3c([C@H](CO)N(C)C[C@]33CCN(CC3)C(=O)c3cccnc3)n(C)c2c1 showed a viability index of 0.969 ± 0.11.

CO[C@@H]1CN(C)C(=O)c2cc(NC(=O)Nc3ccccc3F)ccc2OC[C@@H](C)N(CCC(F)(F)F)C[C@H]1C was tested, and the viability index was 1.058 ± 0.0095.

Work on C/C=C/c1ccc([C@H]2[C@H]3CNC[C@@H]2N3S(=O)(=O)c2ccccc2C)cc1 yielded a viability index of 1.04 ± 0.027.

With C[C@H](CO)N1C[C@H](C)[C@H](CN(C)C(=O)Nc2cccc3ccccc23)Oc2ncccc2C1=O the viability index was 0.826 ± 0.021.

Compound C/C=C/c1ccc([C@H]2[C@H]3CNC[C@@H]2N3Cc2cc(F)ccc2F)cc1 has a viability index of 1.071 ± 0.0029.

For C[C@H]1CN([C@@H](C)CO)C(=O)Cc2cc(NC(=O)Cn3cnnn3)ccc2O[C@H]1CN(C)S(=O)(=O)c1ccc(Cl)cc1, the viability index was 1.04 ± 0.051.

For COc1ccccc1-c1ccc2c(c1)[C@H]1[C@H](CCN1Cc1ccccc1F)[C@@H](CO)N2, the viability index was 1.02 ± 0.035.

O=C(c1ccccn1)N1C[C@@H]2[C@H](c3ccccc31)[C@H](CO)N2C(=O)C1CCCCC1 showed a viability index of 1.05 ± 0.047.

For CN1[C@@H]2CN(C(=O)Nc3cc(F)ccc3F)c3ccccc3[C@@H]2[C@@H]1CO, the viability index was 1.019 ± 0.0066.
